Test results from PMC10465699, “Interaction patterns of methoprene-tolerant and germ cell-expressed Drosophila JH receptors suggest significant differences in their functioning” (Frontiers in Molecular Biosciences, 2023).
Results are given in words; binding and its absence hold for the method and conditions named. For part of these data: In cells and extracts the contact can be indirect. Some results given as binding are weak or reduced against the parent protein; the word gives no strength. For part of these data: Where a sequence is shown, tags or fusion partners need not be part of it.

The chains behind the UniProt entries cited, without tags or fusion partners.
UniProt P63104: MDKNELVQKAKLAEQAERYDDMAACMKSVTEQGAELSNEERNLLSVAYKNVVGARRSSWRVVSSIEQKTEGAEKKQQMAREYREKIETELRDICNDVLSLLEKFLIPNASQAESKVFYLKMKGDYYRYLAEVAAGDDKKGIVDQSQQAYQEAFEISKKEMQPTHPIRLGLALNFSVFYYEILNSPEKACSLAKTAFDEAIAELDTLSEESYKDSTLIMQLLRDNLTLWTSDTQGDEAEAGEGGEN

Experiments:
[1] = molecular target: T1, Methoprene-tolerant C-terminus (MetC, 509-716 aa) (D. melanogaster) (UniProt Q9VYW2); assay: NMR titration; 15N-HSQC of 15N-MetC without and with an equimolar concentration of 14-3-3; 20 mM Bis-Tris pH 6.5, 150 mM NaCl, 5 mM bME; 18 C; both purified
T1 sequence: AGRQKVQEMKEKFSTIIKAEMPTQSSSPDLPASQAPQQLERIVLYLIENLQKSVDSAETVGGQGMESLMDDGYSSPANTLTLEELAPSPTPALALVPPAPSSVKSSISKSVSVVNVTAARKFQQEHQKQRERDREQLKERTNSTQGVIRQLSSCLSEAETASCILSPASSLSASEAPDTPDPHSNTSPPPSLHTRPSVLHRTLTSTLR

[2] = molecular target: T2, YFP-GceC-FLAG (D. melanogaster) (UniProt Q9VXW7); assay: co-IP; COS-7 cells co-transfected with a YFP-/FLAG-tagged protein and CFP-14-3-3; lysis buffer with phosphatase inhibitors; lysate on ANTI-FLAG M2 Affinity Gel, elution with FLAG peptide, Western blot with anti-GFP or anti-14-3-3; no JH
T2 sequence: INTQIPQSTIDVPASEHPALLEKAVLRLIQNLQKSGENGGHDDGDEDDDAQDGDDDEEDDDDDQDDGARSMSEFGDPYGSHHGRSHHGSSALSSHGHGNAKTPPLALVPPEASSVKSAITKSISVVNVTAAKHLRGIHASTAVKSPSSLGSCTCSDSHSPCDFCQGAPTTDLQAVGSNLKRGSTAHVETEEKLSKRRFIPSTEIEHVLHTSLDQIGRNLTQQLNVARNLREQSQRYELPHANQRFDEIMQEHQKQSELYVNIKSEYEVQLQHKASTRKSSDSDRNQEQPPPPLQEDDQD

[3] = molecular target: T3, YFP-MetC-FLAG (D. melanogaster) (UniProt Q9VYW2); assay: as above
T3 sequence: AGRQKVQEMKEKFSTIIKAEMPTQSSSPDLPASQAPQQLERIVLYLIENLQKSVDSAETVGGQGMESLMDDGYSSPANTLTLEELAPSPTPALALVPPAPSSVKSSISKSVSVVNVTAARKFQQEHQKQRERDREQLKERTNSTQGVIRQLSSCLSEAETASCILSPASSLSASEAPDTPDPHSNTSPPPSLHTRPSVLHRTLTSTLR

[4] = molecular target: T3, YFP-MetC-FLAG (D. melanogaster); assay: co-IP; COS-7 cells co-transfected with a YFP-/FLAG-tagged protein and CFP-Ftz-F1 LBD; lysate on ANTI-FLAG M2 Affinity Gel, elution with FLAG peptide, Western blot with anti-GFP; no JH
[5] = molecular target: T4, Fushi tarazu factor-1 ligand-binding domain (Ftz-F1 LBD, 786-1027 aa) (D. melanogaster) (UniProt P33244); assay: NMR titration; 15N-HSQC of 15N Ftz-F1 LBD with unlabelled peptide, equimolar, double equimolar and up to the solubility limit (approximately 3 mM Met^PEP, 2 mM Gce^PEP); 20 mM sodium phosphate pH 6.8, 50 mM NaCl, 1 mM TCEP, 0.5 mM EDTA; 29 C; both purified
T4 sequence: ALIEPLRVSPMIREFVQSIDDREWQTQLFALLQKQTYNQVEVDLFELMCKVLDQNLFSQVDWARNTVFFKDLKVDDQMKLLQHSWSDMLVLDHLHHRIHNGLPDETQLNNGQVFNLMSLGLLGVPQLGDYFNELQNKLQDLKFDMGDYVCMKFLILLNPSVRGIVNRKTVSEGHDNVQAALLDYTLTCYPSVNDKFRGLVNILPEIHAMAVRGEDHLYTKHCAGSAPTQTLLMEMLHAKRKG

14-3-3 human isoform zeta, full length (from UniProt P63104 1-245)
binding [1]: no binding (tested: equimolar concentration of 14-3-3)

CFP-14-3-3 (human isoform zeta) (from UniProt P63104 1-245)
binding [2]: binds | binding [3]: no binding

B1: Fushi tarazu factor-1 ligand-binding domain (Ftz-F1 LBD, 786-1027 aa) (domain or fragment, D. melanogaster, UniProt P33244 786-1027, looked up)
chain: ALIEPLRVSPMIREFVQSIDDREWQTQLFALLQKQTYNQVEVDLFELMCKVLDQNLFSQVDWARNTVFFKDLKVDDQMKLLQHSWSDMLVLDHLHHRIHNGLPDETQLNNGQVFNLMSLGLLGVPQLGDYFNELQNKLQDLKFDMGDYVCMKFLILLNPSVRGIVNRKTVSEGHDNVQAALLDYTLTCYPSVNDKFRGLVNILPEIHAMAVRGEDHLYTKHCAGSAPTQTLLMEMLHAKRKG
notes: 15N- or 13C,15N-labelled where it was the observed protein in NMR, unlabelled otherwise; also called LBD Ftz-F1; source: E. coli BL21(DE3), purified (Ni-NTA, thrombin digestion, SEC); not shown: His6, N-terminal, cleaved
binding [4]: binds

B2: Met^PEP, 19-residue peptide of the novel NR-box of MetC (peptide)
peptide: LERIVLYLIENLQKSVDSA
notes: 19-residue peptide representing the novel NR-box in the C-terminus of Met, D. melanogaster, UniProt Q9VYW2; also called MetC^PEP; source: synthetic peptide (PSL GmbH, Heidelberg)
binding [5]: binds weakly

LEKAVLRLIQNLQKSGENG [Gce^PEP, 19-residue peptide of the novel NR-box of GceC]
binding [5]: binds weakly
